In article PMC12136788 one finds binding signal data, which are given here for 14 molecules.

The list shows a part of the results.

The labels stand for the following.
T1: UNK ZnF1-3 (human, UniProt Q9C0B0 31-174)
T1 sequence: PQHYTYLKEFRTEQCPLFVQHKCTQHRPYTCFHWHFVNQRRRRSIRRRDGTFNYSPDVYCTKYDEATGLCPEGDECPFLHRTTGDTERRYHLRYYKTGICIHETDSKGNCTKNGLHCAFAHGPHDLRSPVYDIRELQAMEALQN

B1: chr7:130129250:130129251:+_ENSMUSG00000030779_ENSMUST00000052135|mus_mus|motif|central (ssRNA)
RNA: GGGAGUUCUACAGUCCGACGAUCCUCCUCUGGUAAGAAGGGUGGUUUCUCUUUCUUCCCGAUUGCAUAGGCCUCUGCAUCGGUAGUUGGUAUUGCAUAUUUUCCAGUGUUUGUAAGCAUUGCACCUUUCAUGUUAGGAUCUUUCAACAGAGGAUUGAGCAUCA
B2: chr1:39494447:39494448:+_ENSG00000168653_ENST00000372967|hu_mus|hu_hu_hu_mus_False|18_68 (ssRNA)
RNA: GGGAGUUCUACAGUCCGACGAUCGCACCGAGCGGCGUUCUUAUAGGGCUGUUCUGCGCUUAGGAACGUCAACCAUCGGUCCAGGCUGAUGCCCAGCUUUUUCUGUAUGUCAAGGAAAGGCAUGGCCCUGCAGUGCCCUUGUCACAACAGAGGAUUGAGCAUCA
B3: chr2:220084271:220084272:-_ENSG00000198925_ENST00000396761|hu_mus|FALSE|FALSE (ssRNA)
RNA: GGGAGUUCUACAGUCCGACGAUCGGAAGGGAGUGCAGGAAGGGUAGGAGCUGGAUCCCAGCAUGCAAUGUCGAAGCCCUAGGCUAGGGUGAGUCCAUUAUCCCUCCAUUCUCCUCUUGGUAAGUGAGGGAUACUGGGCAGAGCCAACAGAGGAUUGAGCAUCA
B4: chr14:62205016:62205017:+_ENSG00000100644_ENST00000337138|hu_hu|motif|central (ssRNA)
RNA: GGGAGUUCUACAGUCCGACGAUCCUGAUCCUGAAUCUGGGGCAUGGUAAAAGAAAGUUCCAGUGACUCUGGAUUUGGUUCGGAUUUUAAUGCAACUUCUUGAUUGAGUGCAGGGUCAGCACUACUUCGAAGUGGCUUUGGCGUCAACAGAGGAUUGAGCAUCA
B5: chr11:29607782:29607783:+_ENSMUSG00000020458_ENSMUST00000102843|mus_hu|FALSE|FALSE (ssRNA)
RNA: GGGAGUUCUACAGUCCGACGAUCAUUAAUAUUUUCAGGCUCUUUAAUUUCUUCCUUUAUUCCUGAUACUUUUUUUAGUGAUACACUCAUGGCCUCUUCAUAUGGUGGGGGGUUUUCAGGCUCAUGUUUUAUGCUUUCAUAAUUCAACAGAGGAUUGAGCAUCA
B6: chr16:94637918:94637919:+_ENSMUSG00000040785_ENSMUST00000117648|mus_mus|motif|central (ssRNA)
RNA: GGGAGUUCUACAGUCCGACGAUCAUCCUGGUGUGCAGCUCUGGAAGAUUUUGAAAACUGUUUCUCCAAAAUGCUUUUCAAAUCGGCUUGUAAACUCACUUCUGAAUUAGAACUGGGCUUUUCUGAUUCAUUGUUUCGUGAUUUCAACAGAGGAUUGAGCAUCA
B7: chr10:98431539:98431540:+_ENSMUSG00000019943_ENSMUST00000020107|mus_mus|FALSE|FALSE (ssRNA)
RNA: GGGAGUUCUACAGUCCGACGAUCCGUAAUUCCAAAGUCUCCAUCAUGGUUAGCUUCUUUCAAAGAGUUCUUCACACCGCUAUACGCAACUGAGUUGUUGGCCAUGUCGCCCAUCACAAGGAUAAUUUAUUAGGAGGAAAAUGUCAACAGAGGAUUGAGCAUCA
B8: chr12:48362563:48362564:+_ENSG00000134291_ENST00000256686|hu_hu|hu_hu_hu_mus_False|8_48 (ssRNA)
RNA: GGGAGUUCUACAGUCCGACGAUCUCCGUCAAGCCCUUCGAUAGACCCUUGCGGGGGAAACUGUAAUCACUUUGUAUGGGGAAGGAAAAAAAAAGCCAAAAACUUUCCAAAAAGCGGGGGUGGGGUGUCCCAGGCCUGGGAGGUCAACAGAGGAUUGAGCAUCA
B9: chr11:86535762:86535763:-_ENSMUSG00000047126_ENSMUST00000103186|mus_mus|FALSE|FALSE (ssRNA)
RNA: GGGAGUUCUACAGUCCGACGAUCUGCAAAGCACUGGAUGACUUUAUUAGGUACAUUGGCCCUGAGGUAAACACUCAGUGCUAAUGUUGGGUCCACAGAUUUAACGAGAUCACCCAGUUCUUCAGAACAUUCCAGCUUAUCUUCCAACAGAGGAUUGAGCAUCA
B10: 3760353_3760473_1773_3pUTR_ENSMUSG00000028234_ENSMUST00000138502|mouse|control|control (ssRNA)
RNA: GGGAGUUCUACAGUCCGACGAUCCUGUAGGAACAUUUAAAAAGUUCUAUGGUAAGCAUUUCCCUUUAUGGUCCUCCCCUUAGAAGCAGUUUCUUCUGGAACCUCUAUGGGACACUGUUGCCAGUUUAACUUUAAACACAAAAGCAACAGAGGAUUGAGCAUCA
B11: chr5:121887652:121887653:+_ENSMUSG00000042719_ENSMUST00000042163|mus_mus|motif|central (ssRNA)
RNA: GGGAGUUCUACAGUCCGACGAUCGAAGACCAGAUUCUCUAGGACUGCAGGCUGGGUCUUCACAUUGCCAUCUGUAACUUCGGAGAGGUCCCCUUUACAUGUGCUGAAGACACCUUUCAAUAGUUCUAGUAAAGAUGCAAGACUCAACAGAGGAUUGAGCAUCA
B12: chr17:66335897:66335898:-_ENSMUSG00000034647_ENSMUST00000038116|mus_hu|FALSE|FALSE (ssRNA)
RNA: GGGAGUUCUACAGUCCGACGAUCCUUCAAUUUAUGUUUUUUUAAUGUUUUACCUUCUUUAUCCAUUUUUUUCAGUGUGCAAUCUGAAUUUUCAAAUGUUGGACUAUGAUCUUCAUCCUUUAUUUUGGCAUUUGAUUUUUCACCCAACAGAGGAUUGAGCAUCA
B13: chr15:96202663:96202664:+_ENSMUSG00000033237_ENSMUST00000096250|mus_mus|motif|central (ssRNA)
RNA: GGGAGUUCUACAGUCCGACGAUCACUGCUUGUGGACGGUGACCCACCCAGAGUUAACACAGGUCCAUUAGAAACUCUUUCGGGUUGGUCACCUUUGGCAGUAUCUUGCUGAGUGGCACCCGAAGUCCCUUGUGGUUCUACUGGCAACAGAGGAUUGAGCAUCA
B14: chr11:97371553:97371554:-_ENSMUSG00000038453_ENSMUST00000107596|mus_mus|FALSE|FALSE (ssRNA)
RNA: GGGAGUUCUACAGUCCGACGAUCCACAAUCCCAUACAAAUUCCUUCCAGGACACACUCGCGCAGUAACCAAAUUGAAGAACUAGAACUACGCAAAGCCCACGGGGGCCUUGCCUGAGCUCGUGGGGCAGCCCCUGCAUGAAUACAACAGAGGAUUGAGCAUCA

For this experiment, the target named is T1, UNK ZnF1-3. The experiment can be described thus: nsRBNS (natural sequence RNA bind-n-seq); RBNS binding buffer (assumed for nsRBNS): 25 mM Tris pH 7.5, 150 mM KCl, 3 mM MgCl2, 0.01% Triton X-100, 500 ug/ml BSA, 20 U/ml SUPERase-In, 4 C; UNK is unkempt and MSI1 is Musashi-1; names of the RNAs are library labels; protein concentration not given here; high values mean tight binding.
In turn, B1 had a binding signal of 0.344 enrichment R. As to B2, the binding signal worked out at 0.717 enrichment R.

The molecule B3 returned a binding signal of 0.867 enrichment R. Regarding B4, the binding signal came to 0.878 enrichment R. As for B5, the figure is 0.553 enrichment R; as for B6, 0.616 enrichment R; as for B7, 1.36 enrichment R. As to B8, the binding signal was 1.81 enrichment R.

In the case of B9, the binding signal was 0.55 enrichment R. With B10, the binding signal stood at 0.821 enrichment R. Molecule B11 registered a binding signal of 1.11 enrichment R. B12 displayed a binding signal of 0.218 enrichment R.

B13 gave a binding signal of 0.459 enrichment R. Regarding B14, the binding signal was 1.09 enrichment R.
